The campaign covered roughly 43,000 compounds. About 200 (0.47%) were called active. About 12% were inconclusive and are not listed. Calls come from the whole dose curve; as a rule, active = well fitted cell-killing curve with a large enough effect; inconclusive = small, poorly fitted or top-dose-only effect, or effect the other way; inactive = flat fitted curve, though single readings scatter. The list shows a part of the results.
Test: Cell viability qHTS assay in S16 Pmp22-F2sN cells; note: nearly all actives have a fitted effect of over 65% in size
Settings: S16 Pmp22-F2sN Schwann cells viability, CellTiter-Glo, 24 h; series mostly up to 57.5 µM; activity change, negative = cytotoxicity: at the top concentration
Method in brief: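 Used to flag compounds lowering reporter output through toxicity, this quantitative HTS measures ATP-based CellTiter-Glo luminescence in S16 Pmp22-F2sN Schwann cells after 24 h compound exposure at 37C.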
% is set by controls: 0 for no effect and ±100 for the full control effect.

Compound | activity change, negative = cytotoxicity
CCOC(=O)c1c(NC(=O)c2cc(CC)on2)sc(C(C)=O)c1C | inactive: -2.33%
O=C(CN1c2ccccc2S(=O)(=O)c2ccccc21)Nc1cccc(C(F)(F)F)c1 | inactive: -3.31%
Cc1cccc(Cn2c(Cc3ccccc3)nc3ccccc32)c1 | inactive: 13.3%
O=C(NCc1ccc(F)cc1)c1ccc2oc(=O)n(Cc3ccccc3)c2c1 | inactive: 0.783%
COc1ccccc1NC(=O)C(=O)NCC(c1cccnc1)N1CCc2ccccc2C1 (configuration not stated) | inactive: -9.55%
CCc1ccc(NC(=O)Cn2c(=O)c3cc(Cl)ccc3n3nncc23)cc1 | inactive: 14%
CCOc1ccc(-c2cc(C(=O)NCCc3ccc(OC)c(OC)c3)[nH]n2)cc1 | inactive: 4.61%
CN1CC(=O)N(CC(=O)Nc2ccc(OC(F)(F)F)cc2)c2ccccc2C1=O | inactive: 5.35%
O=c1c2oc3ccccc3c2n(Cc2cccc(F)c2)c(=O)n1Cc1ccc2c(c1)OCO2 | inactive: -3.44%
Cc1ccccc1CNC(=O)C(=O)NCC(c1cccs1)S(=O)(=O)c1cccs1 (configuration not stated) | inactive: 5.49%
COC(=O)c1cccc(CN2C(=O)SC(Nc3ccc(C)cc3)C2=O)c1 (configuration not stated) | inactive: -1.4%
C=Cc1ccc(Cn2c(SCC(=O)N3CCN(c4ccc(F)cc4)CC3)nc3ccccc32)cc1 | inactive: 2.09%
CC(=O)Nc1nonc1-c1nnc(SCc2ccccc2)n1C | inactive: 3.85%
COc1ccc(-n2nc(C(=O)Nc3cc(C)ccn3)c3c4ccccc4n(C)c3c2=O)cc1Cl | inactive: -7.13%
COc1ccc(CNC(=O)c2cnc3ccc(C)cn3c2=O)cc1 | inactive: 6.77%
Cc1ccccc1NC(=O)c1ccc(N(Cc2ccccc2)S(C)(=O)=O)cc1 | inactive: -12.3%
CCc1nn(CC(=O)NC(C)CC)c(=O)c2cc3occc3n12 (configuration not stated) | inactive: -1.33%
CC(C)(C)OC(=O)N1CCC(c2c(C(=O)Nc3ccc4c(c3)OCO4)cnn2-c2ccccc2)CC1 | inactive: 4.37%
O=C(COc1ccccc1)OCc1cc(=O)n2nc(-c3cccs3)sc2n1 | inactive: 0.234%
Cc1c(Cl)cccc1NC(=O)c1cc2nc(-c3ccc4c(c3)OCO4)cc(C(F)(F)F)n2n1 | inactive: 2.01%
COC(=O)c1ccccc1NC(=O)CCS(=O)(=O)c1nc(-c2ccc3c(c2)OCO3)cc(C(F)(F)F)n1 | inactive: -6.22%

Compound | activity change, negative = cytotoxicity
COc1ccccc1CNc1ncnc2c1nnn2C | inactive: -1.06%
CCOCCCn1c(=N)c(S(=O)(=O)c2ccc(Cl)cc2)cc2c(=O)n3cccc(C)c3nc21 | inactive: 13.6%
COC(=O)c1c(-c2cccs2)csc1NC(=O)c1ccc(C(C)C)cc1 | inactive: -10.5%
O=C(NCc1ccc2c(c1)CCN2C(=O)c1ccncc1)c1ccccc1F | inactive: -3.25%
COc1ccc(N2CCN(C(=O)CSCc3ccc(C)cc3)CC2)cc1 | inactive: -2.65%
CC(=O)c1cccc(NS(=O)(=O)c2cccc(S(=O)(=O)c3ccc(Br)cc3)c2)c1 | inactive: -0.434%
O=c1[nH]c(SCc2c(F)cccc2Cl)nc2c1CCCC2 | inactive: -4.14%
Cc1ccc(NC(=O)CCS(=O)(=O)c2ccc3c(c2)oc(=O)n3C)c(Br)c1 | inactive: -56.2%
Cc1ccc2nc(COc3cccc(NC(=O)COc4ccc(F)cc4)c3)cc(=O)n2c1 | inactive: -3.36%
COc1ccc(NC(=O)c2cc3c(C)nn(-c4ccccc4)c3s2)c(OC)c1 | inactive: -4.95%
Cc1c(Cl)cccc1Nc1nn2c(=O)c3ccc(C(=O)N(C)Cc4ccccc4)cc3nc2s1 | inactive: 1.17%
CCOc1cc(S(=O)(=O)NCCc2c(C)[nH]c3ccc(C)cc23)ccc1Br | inactive: -6.29%
O=C(Nc1cccc(-c2nc3ccccc3o2)c1)c1cccc2c(Cl)cccc12 | inactive: 6.16%
COCCNC(=O)c1[nH]c2cc(C)ccc2c1Sc1ccc(Cl)cc1 | inactive: -1.64%
COc1ccc(Cl)cc1NC(=O)CCn1c(=O)oc2ccccc21 | inactive: 9.28%
Cc1ccccc1NC(=O)CSc1ccc(-c2cccs2)nn1 | inactive: -21.3%
O=c1[nH]c(SCc2ccc([N+](=O)[O-])cc2)nc2c1CCCC2 | inactive: -0.908%
O=C(CSc1nccn1Cc1ccccc1)Nc1ccc2c(c1)OCCO2 | inactive: -2.21%
Cc1ccc(CNC(=O)Cn2cccc2C(=O)c2ccccc2C)cc1 | inactive: 11.3%
O=C(CSc1nnc(COc2ccccc2)o1)Nc1cc(C(F)(F)F)ccc1Cl | inactive: 2.13%
COc1ccc(NC(=O)Nc2nnc(N(CC(C)C)CC(C)C)s2)c(OC)c1 | inactive: -16%

Compound | activity change, negative = cytotoxicity
CCN(C(=O)c1cc2c(s1)-c1ccccc1OC2)c1cccc(C(F)(F)F)c1 | inactive: 4.1%
COc1ccc(NC(=O)c2cc(C3CC3)nc3c2c(C)nn3-c2ccccc2)cc1OC | inactive: -0.0607%
O=C(Cn1ncc2c3ccccc3n(Cc3ccc(F)cc3)c2c1=O)NCCCN1CCCCC1 | inactive: -1.68%
Cc1ccc(CCNC(=O)c2c(C)nn(-c3ccc(F)cc3)c2-n2cccc2)cc1 | inactive: 1.73%
O=C(CCS(=O)(=O)c1cccc2nonc12)Nc1ccc(Br)cc1 | inactive: -19.9%
CC1=C(C(=O)Nc2ccccc2)C(c2ccc(O)cc2)n2nc(SCc3ccccc3)nc2N1 (configuration not stated) | inactive: 22.3%
CCOc1ccccc1NC(=O)N1CCC2(CC1)Oc1ccccc1C(=O)N2Cc1ccccc1F | inactive: -1.39%
CCc1ccc(NC(=O)C(=O)NCCc2sc3nc(-c4ccc(OC)cc4)nn3c2C)cc1 | inactive: 0.0173%
Cc1ccc(CNc2nc3ccc(C)cc3n3nnnc23)cc1 | inactive: 0.985%
COc1cc(NC(=O)Cn2nc3c(cc2=O)CC(C)CC3)cc(OC)c1OC (configuration not stated) | inactive: 1.45%
COc1cc(OC)c(N(C)C(=O)c2sc3nc4n(c(=O)c3c2C)CCCCC4)cc1Cl | inactive: 5.66%
COc1ccc2[nH]cc(CCN=C(NC(=O)c3ccccc3C)Nc3nc(C)cc(C)n3)c2c1 | inactive: -4.27%
COc1ccc(OCC(=O)Nc2ccc(-c3nc4cc(C)c(C)cc4o3)cc2)cc1 | inactive: 6.72%
CN(C)S(=O)(=O)N(CC(=O)NCCSc1ccccc1)c1ccccc1 | inactive: 27.6%
CC(C)N(Cc1ccccc1)C(=O)CN1C(=O)CSc2ccc(S(=O)(=O)N3CCCC3)cc21 | inactive: 11.8%
CCn1cc(C(=O)N2CCN(c3ccc(OC)cc3)CC2)c(=O)c2cc(S(=O)(=O)N3CCOCC3)ccc21 | inactive: -2.93%
CC(=O)Nc1cccc(C(=O)NCc2ccc3c(c2)CCN3C(=O)c2ccc(F)cc2)c1 | inactive: 0.222%
CC(=O)c1ccc(NC(=O)COCc2cc(-c3ccc(F)cc3)on2)cc1 | inactive: -0.883%
COc1ccccc1NC(=O)C1=C(C)Nc2nc(SCc3ccccc3)nn2C1c1ccncc1 (configuration not stated) | inactive: 1.39%
Cc1cc(NC(=O)c2ccc(NC(=O)CCS(=O)(=O)c3cccs3)cc2)ccc1Br | inactive: -0.335%

From PubChem BioAssay AID1508642 (National Center for Advancing Translational Sciences (NCATS), 2021)
